In patent publication US11178870B2 (priority 2017, dated 2021):

Assays:
[1] = test system: Magnaporthe grisea; assay type: in vivo; settings: Table 7, Test A
[2] = test system: Phytophthora infestans; assay type: in vivo; settings: Table 7, Test F
[3] = test system: Colletotrichum orbiculare; settings: 250 ppm sprayed (2.5 ml/pot) before inoculation; assessed 6 to 10 days after inoculation

| Compound | control value, Test A (blast on rice) [1] | control value, Test F (late blight on tomato) [2] | control value, Test H (anthracnose on cucumber) [3] |
| --- | --- | --- | --- |
| Cc1cnn(-c2cc(Br)c(=O)n(C)c2-c2c(F)cccc2F)c1 [Compound 188] | H (H shows the control value more than 50%) | L (L shows the control value of 50% or less) | H (H shows the control value more than 50%) |
| Cc1cnn(-c2cc(Br)c(=O)n(CC(F)F)c2-c2ccccc2C)c1 [Compound 304] | L (L shows the control value of 50% or less) | L (L shows the control value of 50% or less) | L (L shows the control value of 50% or less) |
| Cc1cnn(-c2cc(Br)c(=O)n(C)c2-c2c(F)cccc2F)c1Cl [Compound 189] | H (H shows the control value more than 50%) | L (L shows the control value of 50% or less) | H (H shows the control value more than 50%) |
| CCn1c(-c2c(F)cc(OC)cc2F)c(-n2cc(F)cn2)cc(Cl)c1=O [Compound 314] | H (H shows the control value more than 50%) | L (L shows the control value of 50% or less) | H (H shows the control value more than 50%) |
| CCn1c(-c2c(F)cccc2Br)c(-n2cc(F)cn2)ccc1=O [Compound 360] | H (H shows the control value more than 50%) | – | – |
| CCn1c(-c2c(F)cc(F)cc2F)c(-n2cc(F)cn2)cc(Cl)c1=O [Compound 192] | H (H shows the control value more than 50%) | L (L shows the control value of 50% or less) | H (H shows the control value more than 50%) |
| O=c1ccc(-n2cc(Cl)cn2)c(-c2ccccc2F)n1CC(F)F [Compound 276] | L (L shows the control value of 50% or less) | L (L shows the control value of 50% or less) | L (L shows the control value of 50% or less) |
| CCn1c(-c2c(F)cc(F)cc2F)c(-n2cnnn2)ccc1=O [Compound 281] | L (L shows the control value of 50% or less) | L (L shows the control value of 50% or less) | L (L shows the control value of 50% or less) |
| Cc1cnn(-c2ccc(=O)n(CC(F)F)c2-c2ccccc2Cl)c1 [Compound 227] | L (L shows the control value of 50% or less) | L (L shows the control value of 50% or less) | L (L shows the control value of 50% or less) |
| O=c1c(Br)cc(-n2cc(Cl)cn2)c(-c2ccccc2Br)n1CC(F)F [Compound 291] | L (L shows the control value of 50% or less) | L (L shows the control value of 50% or less) | L (L shows the control value of 50% or less) |
| O=c1ccc(-n2cc(Cl)cn2)c(-c2ccc(F)cc2F)n1CC(F)F [Compound 211] | H (H shows the control value more than 50%) | L (L shows the control value of 50% or less) | L (L shows the control value of 50% or less) |
| Cc1cnn(-c2cc(Cl)c(=O)n(CC(F)F)c2-c2ccc(F)cc2F)c1Cl [Compound 255] | H (H shows the control value more than 50%) | L (L shows the control value of 50% or less) | H (H shows the control value more than 50%) |
| Cc1cnn(-c2cc(Br)c(=O)n(CC(F)F)c2-c2ccccc2F)c1 [Compound 309] | H (H shows the control value more than 50%) | L (L shows the control value of 50% or less) | L (L shows the control value of 50% or less) |
| O=c1c(Cl)cc(-n2cc(F)cn2)c(-c2ccc(F)cc2F)n1CC(F)F [Compound 285] | H (H shows the control value more than 50%) | L (L shows the control value of 50% or less) | H (H shows the control value more than 50%) |
| O=c1ccc(-n2cnc(Cl)c2Cl)c(-c2ccccc2Cl)n1CC(F)F [Compound 231] | H (H shows the control value more than 50%) | L (L shows the control value of 50% or less) | L (L shows the control value of 50% or less) |
| Cc1cnn(-c2cc(Cl)c(=O)n(CC(F)F)c2-c2c(F)cccc2F)c1Cl [Compound 190] | H (H shows the control value more than 50%) | L (L shows the control value of 50% or less) | H (H shows the control value more than 50%) |
